# The whole screen tested about 310,000 compounds, of which about 2,200 (0.71%) showed an effect of 50% or more. The effect is printed as a negative number. The list shows a part of the results.
# Target: human ether-à-go-go-related gene (hERG) potassium channel (human, UniProt Q12809)
# Experiment: primary screen, population patch clamp on CHO cells stably expressing hERG
# human ether-à-go-go-related gene (hERG) potassium channel, sequence (Q12809 whole entry, looked up): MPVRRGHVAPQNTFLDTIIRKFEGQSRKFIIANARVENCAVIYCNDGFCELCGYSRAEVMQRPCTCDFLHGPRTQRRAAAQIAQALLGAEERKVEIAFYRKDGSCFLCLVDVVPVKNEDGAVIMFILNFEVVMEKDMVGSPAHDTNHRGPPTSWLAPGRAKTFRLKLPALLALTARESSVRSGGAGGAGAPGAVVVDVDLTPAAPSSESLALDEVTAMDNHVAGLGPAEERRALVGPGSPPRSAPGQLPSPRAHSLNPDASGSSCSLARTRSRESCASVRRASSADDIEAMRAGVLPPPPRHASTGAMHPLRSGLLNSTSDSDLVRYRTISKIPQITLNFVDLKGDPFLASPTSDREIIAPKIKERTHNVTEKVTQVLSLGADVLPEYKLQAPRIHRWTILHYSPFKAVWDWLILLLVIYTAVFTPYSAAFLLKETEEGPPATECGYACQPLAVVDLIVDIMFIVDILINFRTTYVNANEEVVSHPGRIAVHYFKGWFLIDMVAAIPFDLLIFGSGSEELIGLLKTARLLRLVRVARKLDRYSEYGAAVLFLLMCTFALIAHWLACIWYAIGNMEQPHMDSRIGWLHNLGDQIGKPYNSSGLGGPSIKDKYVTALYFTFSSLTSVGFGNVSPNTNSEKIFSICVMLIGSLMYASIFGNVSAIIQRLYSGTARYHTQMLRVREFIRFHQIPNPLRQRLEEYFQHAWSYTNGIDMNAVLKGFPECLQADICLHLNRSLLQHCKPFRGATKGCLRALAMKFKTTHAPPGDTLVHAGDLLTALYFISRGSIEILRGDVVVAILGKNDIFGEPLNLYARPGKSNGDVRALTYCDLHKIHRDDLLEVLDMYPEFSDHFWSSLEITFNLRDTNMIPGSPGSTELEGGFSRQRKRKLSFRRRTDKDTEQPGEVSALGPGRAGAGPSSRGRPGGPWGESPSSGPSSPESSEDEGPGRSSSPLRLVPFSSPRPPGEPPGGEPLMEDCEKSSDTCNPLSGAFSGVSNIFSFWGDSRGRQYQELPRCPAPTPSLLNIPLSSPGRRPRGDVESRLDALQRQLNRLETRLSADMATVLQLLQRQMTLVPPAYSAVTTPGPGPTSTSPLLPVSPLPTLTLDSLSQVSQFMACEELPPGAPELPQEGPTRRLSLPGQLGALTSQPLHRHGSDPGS
row,SMILES,"hERG current change (%, negative = inhibition) at 1uM [%]"
1,CC1CCCN(C(=O)c2ccc3c(=O)n(Cc4ccc5c(c4)OCO5)c(=S)[nH]c3c2)C1 (centres unmarked),4.88
2,CC1CC(NC(=O)c2cc3c(=O)n4ccccc4nc3n2C)CC(C)(C)C1 (centres unmarked),12
3,O=C(CN(Cc1ccc(F)cc1)C(=O)CNS(=O)(=O)c1ccccc1)NCC1CCCO1 (centres unmarked),13.2
4,COC(=O)[C@@H]1CC(O)CN1C(=O)C12CC3CC(CC(C3)C1)C2 (some centres unmarked),8.03
5,O=C(NC1CCCCC1)c1ccccc1NC(=S)NC(=O)C1CC1,18
6,COc1ccc(OCC(=O)Nc2ccccc2O)cc1,-9.12
7,CCOC(=O)N1CCN(S(=O)(=O)CCNC(=O)c2ccc(OC)cc2)CC1,1.78
8,CCCCN1C(=O)/C(=C/c2ccc(N3CCCCCC3)cc2)C(=O)NC1=S,-4.6
9,O=C1NC2(CCCCCC2)Oc2ccccc21,9.01
10,COc1cccc(OC)c1OCCNCC1COc2ccccc2O1.Cl (centres unmarked),-5.28
11,C=C(C)C(=O)N1CC2(CC(c3cccc(NC(=O)CC(c4ccccc4)c4ccccc4)c3)=NO2)C[C@H]1C(N)=O (some centres unmarked),11.3
12,O=C(Cn1nnc(-c2ccncc2)n1)Nc1ccc2c(c1)CCC2,9.61
13,Cc1ccc(C)c(S(=O)(=O)N2CCCC2CNC(=O)C(=O)NCc2ccccc2C)c1 (centres unmarked),-1.35
14,COc1cc(/C=N/Nc2ccccn2)ccc1OCC(C)C,12.8
15,N#Cc1cccc(NC(=O)Cc2ccccc2)c1,17.6
16,COc1ccc(Cn2c(-c3ccc(OC)cc3)nc3ccccc32)cc1,-0.996
17,CCOP(=O)(OCC)/C(C#N)=C/c1ccc(-c2ccc(F)cc2F)o1,12.1
18,CCC1(c2ccc(F)cc2)NC(=O)N(CC(=O)N2CC(=O)Nc3ccccc32)C1=O (centres unmarked),-14.1
19,CS(=O)(=O)c1ccc(N2CCN(C3CC(=O)NC3=O)CC2)cc1 (centres unmarked),9.3
20,CC(C)NC(C(=O)Nc1cc(Cl)cc(Cl)c1)c1ccccc1 (centres unmarked),8.81
21,C=CCN1C(=O)C2C(C(=O)NCc3ccccc3)C3(C)C=CC2(O3)C1C(=O)NC(C)(C)C (centres unmarked),19.5
22,COc1ccc(C2c3c(ccc4ccccc34)Oc3ncn4nc(Cc5ccccc5)nc4c32)cc1OC (centres unmarked),-3.63

row,SMILES,"hERG current change (%, negative = inhibition) at 1uM [%]"
1,CCCNC(=O)NNC(=O)c1cc(-c2ccc3c(c2)OCO3)nc2ccccc12,6.49
2,COc1ccccc1N1CCN(C(=O)c2ccc(N3CCCCS3(=O)=O)cc2)CC1,11.4
3,C=CCNCC(=O)Nc1sc2c(c1C(=O)Nc1ccc(OC)cc1OC)CCC2,9.66
4,CC1=CC(=O)c2c(O)ccc(O)c2C1=O,-20.8
5,COc1cc(/C=C2/SC(=S)N(CCC(=O)Nc3ccc(C(=O)O)cc3)C2=O)cc(OC)c1OC,11
6,O=C(Cc1cccs1)N/N=C/c1ccc(OCc2ccccc2)cc1,0.531
7,O=C(COC(=O)c1cc(=O)[nH]c2ccccc12)Nc1nc(-c2cccc(Br)c2)cs1,4.44
8,CCOc1ncccc1C(=O)OCC(=O)Nc1cccc(S(=O)(=O)N2CCCCCC2)c1,-20.9
9,CCc1nnc(NC(=O)c2cc(-c3cccnc3)nc3ccccc23)s1,13.3
10,COc1cc(OC)cc(C(=O)Nc2ncn[nH]2)c1,14
11,Cc1cc(C)n(CCCNC(=O)c2ccc(S(=O)(=O)NCc3ccco3)cc2)n1,3.77
12,O=C(CSc1nnc(Cc2ccccc2)o1)Nc1ccccc1,9.62
13,Cn1ccnc1C(=O)Cc1ccc([N+](=O)[O-])cc1,6.73
14,CN(C)Cc1c(O)ccc2occ(C(=O)c3ccc(F)cc3)c12,-57.5
15,O=C(N/N=C/c1ccc2ncccc2c1)c1cc(-c2cccs2)nc2ccccc12,13.7
16,O=C(CO/N=C/c1ccccc1Cl)N1CCCc2ccccc21,7.11
17,O=C(C[C@H]1C(=O)N(C2CCCCC2)C[C@@H]1Cc1ccccc1)Nc1ccccc1,-7.77
18,Cc1ccnc(NC(=O)Cc2ccc([N+](=O)[O-])cc2)c1,4.06
19,CCC1CCCCN1S(=O)(=O)c1ccc(NC(=O)c2nc(S(C)(=O)=O)ncc2Cl)cc1 (centres unmarked),20.9
20,O=C(CN1c2ccccc2Sc2ccccc21)N/N=C/c1ccc(Cl)cc1Cl,12.9
21,Cc1ccc(C#N)c(SCCN2CCCCC2)n1,-1.99
22,Cc1cc(S(=O)(=O)NC(C)C)ccc1OCC(=O)N1CCN(Cc2ccc3c(c2)OCO3)CC1,-2.02

row,SMILES,"hERG current change (%, negative = inhibition) at 1uM [%]"
1,COC(=O)c1sc(C(C)(C)C)cc1CS(=O)(=O)c1ccc(Cl)cc1,23.7
2,Cc1cc2nc(C3CCN(C(=S)NCCCOC(C)C)CC3)[nH]c2cc1C,9.1
3,CCc1nc(SCC(=O)N2CCC(C)CC2)c2c(=O)n(C)c(=O)n(C)c2n1,2.17
4,Cc1ccc(S(=O)(=O)N2CCC(=O)N(C(COCc3cccc(Cl)c3)Cc3ccccc3)CC2)cc1 (centres unmarked),6.04
5,Cn1c(SCc2ccccc2F)nnc1-c1ccccn1,11.3
6,COc1cc(C2=NOC(C(=O)N3CCN(c4ccc(F)cc4)CC3)C2)cc(OC)c1OC (centres unmarked),-7.57
7,CCC1CCCCN1CCCNC(=O)CN1C(=O)COc2ccc(S(=O)(=O)N3CCC(C)CC3)cc21 (centres unmarked),-13.8
8,CC(Cn1cncn1)NC(=O)c1cc(COc2cccc(C(F)(F)F)c2)on1 (centres unmarked),14.3
9,Cc1c(/N=C(\[O-])Nc2ccc(Br)cc2)sn[n+]1C,1.76
10,COc1ccccc1OCCC(=O)NNC(=O)c1ccccc1F,9.54
11,COC(=O)c1nnn(-c2nonc2N)c1-c1cccs1,-5.51
12,CCOc1ccccc1NC(=O)C1CCCCN1S(=O)(=O)c1ccccc1 (centres unmarked),5.55
13,COc1ccc(NC(=O)c2ccc(NC3=NC4CS(=O)(=O)CC4S3)cc2)cc1 (centres unmarked),8.84
14,O=C(/C=C/c1cccs1)Nc1sc2c(c1C(=O)O)CCCC2,16.9
15,Cc1cc(C)c(OCC(=O)OC(C)C(=O)NC2CC2)c(C)c1 (centres unmarked),15.9
16,O=C(NC(=S)Nc1ccccc1[N+](=O)[O-])c1ccccc1Cl,11.8
17,CCn1c(SCC(=O)Nc2ccc(OC)cc2)nc2c(c1=O)SCC2,7.76
18,Cc1c(Cl)cccc1NC(=S)NCC(O)c1ccccc1 (centres unmarked),11.7
19,CCCCc1cn([C@@H](CCCCN)C(=O)N2CCNCC2)nn1.Cl,11
20,CCOc1ccccc1NC(=O)C1CCC(=O)N1S(=O)(=O)c1ccc(C)cc1 (centres unmarked),7.24
21,CCN(CC(=O)NCCCN1CCOCC1)S(=O)(=O)c1ccc(F)cc1,11.2
22,COc1ccc(C2SCC(=O)Nc3c2c(=O)[nH]n3C2CCCCCC2)cc1OC (centres unmarked),0.213

row,SMILES,"hERG current change (%, negative = inhibition) at 1uM [%]"
1,COc1ccc(C2CC(C(F)(F)F)n3ncc(C(=O)O)c3N2)cc1OC (centres unmarked),-6.95
2,CCOc1ccc(N(CC(=O)NCCc2ccc(Cl)cc2)S(=O)(=O)c2c(C)[nH]c(=O)[nH]c2=O)cc1,24.5
3,COc1ccc(C(=O)N2CCN(c3ccc(C(C)=O)cc3F)CC2)cc1S(=O)(=O)NC1CC1,-7.57
4,CCCOc1ccc(NC2=CC(=O)CC(C)(C)C2)cc1,9.5
5,COc1ccc(C2C(C(C)=O)=C(Nc3ccccc3)CC(C)(O)C2C(C)=O)cc1OC (centres unmarked),8.63
6,CCC(C)(C)C1CCc2[nH]nc(C(=O)NC3CCCCC3)c2C1 (centres unmarked),15.5
7,O=C(Cn1cncn1)N/N=C/c1ccc(Cl)cc1,13.1
8,O=C(c1ccc(S(=O)(=O)N2CCCCCC2)cc1)N1CCCC(C(F)(F)F)C1 (centres unmarked),4.16
9,CCc1cc(=O)oc2c(C)c(OC(C)C(=O)NC3CC(C)(C)NC(C)(C)C3)ccc12 (centres unmarked),10.7
10,CC1CCN(S(=O)(=O)c2ccc3c(c2)c(=O)c(C(=O)N2CCCCC2)cn3C)CC1,-5.71
11,C[N+]1(C)CCC(=C2c3ccccc3CC(=O)c3sccc32)CC1.[I-],11.5
12,CCC(C)NC(=O)C1c2ccccc2C(=O)N1Cc1cc(OC)ccc1OC (centres unmarked),11.7
13,Cc1[nH]n(-c2ccccc2)c(=O)c1C(=O)c1ccc([N+](=O)[O-])cc1,10.6
14,O=C1CC(c2ccc(F)cc2)Cc2nc(NCC3CCCO3)ncc21 (centres unmarked),2.37
15,Cc1cccc(NC(=O)CNC(=O)CSc2nnc(C(F)(F)F)n2C)c1C,11.7
16,O=C1CC(c2nc3ccccc3[nH]2)CN1c1ccccc1F (centres unmarked),-3.67
17,CCCCOCCCNCc1cccn1CCN1CCOCC1.O=C(O)C(=O)O,16
18,CC(C)(O)c1ccc2c(c1)CCC1C(C)(C(=O)O)CCCC21C (centres unmarked),6.58
19,Cc1ccc(NC(=O)CSc2ncn[nH]2)cc1S(=O)(=O)N1CCOCC1,7.37
20,CCOC(=O)c1ccoc1CSCC(=O)N1CCN(S(=O)(=O)c2ccc(C)cc2)CC1,-10.8

# Source: paper PMC4336329 (PLoS ONE, 2015)
